From article PMC9911399, “Two distinct binding modes provide the RNA-binding protein RbFox with extraordinary sequence specificity”
Where a chain is given by its changes, count along the chain named. The list shows a part of the results.

T1: RBFOX1 RRM (Homo sapiens, UniProt Q9NWB1 109-208)
T1 sequence: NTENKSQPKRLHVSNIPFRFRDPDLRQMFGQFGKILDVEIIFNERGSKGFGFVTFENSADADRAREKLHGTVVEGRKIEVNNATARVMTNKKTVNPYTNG

B1: CCAGGCU (DNA:RNA)
RNA: GGGAGACCGGAAUUCAGAUUGUCCCCAGGCUUUAAAUCCCGUCGUAGCCACCA
DNA 1: CAATCTGAATTCCGGTCTCCC
DNA 2: TGGTGGCTACGACGGGATT
B2: GGUCGCG (DNA:RNA)
RNA: B1 RNA with C25G, C26G, A27U, G28C, U31G
DNA 1: CAATCTGAATTCCGGTCTCCC
DNA 2: TGGTGGCTACGACGGGATT
B3: CCUACGA (DNA:RNA)
RNA: B1 RNA with A27U, G28A, G29C, C30G, U31A
DNA 1: CAATCTGAATTCCGGTCTCCC
DNA 2: TGGTGGCTACGACGGGATT
B4: GUUGACC (DNA:RNA)
RNA: B1 RNA with C25G, C26U, A27U, G29A, U31C
DNA 1: CAATCTGAATTCCGGTCTCCC
DNA 2: TGGTGGCTACGACGGGATT
B5: CUUGUAG (DNA:RNA)
RNA: B1 RNA with C26U, A27U, G29U, C30A, U31G
DNA 1: CAATCTGAATTCCGGTCTCCC
DNA 2: TGGTGGCTACGACGGGATT
B6: CAACAUG (DNA:RNA)
RNA: B1 RNA with C26A, G28C, G29A, C30U, U31G
DNA 1: CAATCTGAATTCCGGTCTCCC
DNA 2: TGGTGGCTACGACGGGATT
B7: GUCUGCA (DNA:RNA)
RNA: B1 RNA with C25G, C26U, A27C, G28U, U31A
DNA 1: CAATCTGAATTCCGGTCTCCC
DNA 2: TGGTGGCTACGACGGGATT
B8: CGGCCAC (DNA:RNA)
RNA: B1 RNA with C26G, A27G, G28C, G29C, C30A, U31C
DNA 1: CAATCTGAATTCCGGTCTCCC
DNA 2: TGGTGGCTACGACGGGATT
B9: AACAUGG (DNA:RNA)
RNA: GGGAGACCGGAAUUCAGAUUGUCCAACAUGGUUAAAUCCCGUCGUAGCCACCA
DNA 1: CAATCTGAATTCCGGTCTCCC
DNA 2: TGGTGGCTACGACGGGATT
B10: AUCAUCU (DNA:RNA)
RNA: B9 RNA with A26U, G30C, G31U
DNA 1: CAATCTGAATTCCGGTCTCCC
DNA 2: TGGTGGCTACGACGGGATT
B11: UAUUACA (DNA:RNA)
RNA: B9 RNA with A25U, C27U, A28U, U29A, G30C, G31A
DNA 1: CAATCTGAATTCCGGTCTCCC
DNA 2: TGGTGGCTACGACGGGATT
B12: CGCUUAC (DNA:RNA)
RNA: B9 RNA with A25C, A26G, A28U, G30A, G31C
DNA 1: CAATCTGAATTCCGGTCTCCC
DNA 2: TGGTGGCTACGACGGGATT
B13: GAGCGGC (DNA:RNA)
RNA: B9 RNA with A25G, C27G, A28C, U29G, G31C
DNA 1: CAATCTGAATTCCGGTCTCCC
DNA 2: TGGTGGCTACGACGGGATT
B14: CCGCCGU (DNA:RNA)
RNA: B1 RNA with A27G, G28C, G29C, C30G
DNA 1: CAATCTGAATTCCGGTCTCCC
DNA 2: TGGTGGCTACGACGGGATT
B15: ACUAGUU (DNA:RNA)
RNA: B1 RNA with C25A, A27U, G28A, C30U
DNA 1: CAATCTGAATTCCGGTCTCCC
DNA 2: TGGTGGCTACGACGGGATT
B16: CUGCGGC (DNA:RNA)
RNA: B1 RNA with C26U, A27G, G28C, C30G, U31C
DNA 1: CAATCTGAATTCCGGTCTCCC
DNA 2: TGGTGGCTACGACGGGATT
B17: GAAAGUC (DNA:RNA)
RNA: B9 RNA with A25G, C27A, U29G, G30U, G31C
DNA 1: CAATCTGAATTCCGGTCTCCC
DNA 2: TGGTGGCTACGACGGGATT
B18: CUAGUUG (DNA:RNA)
RNA: B1 RNA with C26U, G29U, C30U, U31G
DNA 1: CAATCTGAATTCCGGTCTCCC
DNA 2: TGGTGGCTACGACGGGATT
B19: GUUCAGC (DNA:RNA)
RNA: B9 RNA with A25G, A26U, C27U, A28C, U29A, G31C
DNA 1: CAATCTGAATTCCGGTCTCCC
DNA 2: TGGTGGCTACGACGGGATT
B20: UCGUAUG (DNA:RNA)
RNA: B9 RNA with A25U, A26C, C27G, A28U, U29A, G30U
DNA 1: CAATCTGAATTCCGGTCTCCC
DNA 2: TGGTGGCTACGACGGGATT

The binders below were run against T1, RBFOX1 RRM (assay: EMSA; HiTS-Eq, 1 nM pool, 10 min; buffer printed only for the single-RNA assays: 10 mM Tris pH 7.5, 150 mM NaCl, 3.4 mM EDTA, 0.001% NP-40, 30 C). Details: tags: His6 N-terminal (pET28a); label: 5' 32P.
Summary of the method: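 Purified RbFox RRM (wild type or mutant) was equilibrated for 10 min in 50 µL with 1 nM of a 5′-radiolabelled pool of RNA with 7 randomized nucleotides, its flanks annealed to DNA oligonucleotides, across increasing protein concentrations. Free RNA was separated by 8% native PAGE, excised, reverse-transcribed, PCR-barcoded and sequenced on an Illumina HiSeq 2500. Relative association constants came from read-count changes of each variant against the control reaction, normalised to the cognate motif.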

Row | Binder | binding signal
1 | B1 | 0.00926 KA relative to UGCAUGU
2 | B2 | 0.0106 KA relative to UGCAUGU
3 | B3 | 0.00267 KA relative to UGCAUGU
4 | B4 | 0.0139 KA relative to UGCAUGU
5 | B5 | 0.0111 KA relative to UGCAUGU
6 | B6 | 0.00479 KA relative to UGCAUGU
7 | B7 | 0.0255 KA relative to UGCAUGU
8 | B8 | 0.00887 KA relative to UGCAUGU
9 | B9 | 0.00507 KA relative to UGCAUGU
10 | B10 | 0.00124 KA relative to UGCAUGU
11 | B11 | 0.0071 KA relative to UGCAUGU
12 | B12 | 0.00631 KA relative to UGCAUGU
13 | B13 | 0.0148 KA relative to UGCAUGU
14 | B14 | 0.00901 KA relative to UGCAUGU
15 | B15 | 0.00854 KA relative to UGCAUGU
16 | B16 | 0.0171 KA relative to UGCAUGU
17 | B17 | 0.00919 KA relative to UGCAUGU
18 | B18 | 0.0137 KA relative to UGCAUGU
19 | B19 | 0.0147 KA relative to UGCAUGU
20 | B20 | 0.0193 KA relative to UGCAUGU
